# Laboratory results published in PubChem BioAssay AID1030 (National Center for Advancing Translational Sciences (NCATS), 2008).
# The campaign covered roughly 220,000 compounds. About 16,000 (7.3%) were called active. This list was built around the results that the source calls inconclusive (neither active nor inactive); the mix of calls is not that of the screen. Calls come from the whole dose curve; as a rule, active = well fitted inhibition curve with a large enough effect (not every such curve was filed as active); inconclusive = small, poorly fitted or top-dose-only effect, or another doubt; inactive = no such curve, though single readings can be large or run the other way. Potencies of inconclusive entries are left out as doubtful fits.
# Target: Aldehyde dehydrogenase 1A1 (Homo sapiens) (UniProt P00352)
# Assay: qHTS Assay for Inhibitors of Aldehyde Dehydrogenase 1 (ALDH1A1);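 for activity, negative = inhibition: plate controls were no enzyme wells and a reference inhibitor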
# Conditions: Purified ALDH1A1, NADH fluorescence, propionaldehyde substrate; series mostly up to 75.3 µM; activity, negative = inhibition: at the top concentration
# Potency is the fitted concentration of half-maximal effect; tags give direction and shape of the fitted curve.
# Chain of UniProt P00352 (P00352 whole entry, looked up): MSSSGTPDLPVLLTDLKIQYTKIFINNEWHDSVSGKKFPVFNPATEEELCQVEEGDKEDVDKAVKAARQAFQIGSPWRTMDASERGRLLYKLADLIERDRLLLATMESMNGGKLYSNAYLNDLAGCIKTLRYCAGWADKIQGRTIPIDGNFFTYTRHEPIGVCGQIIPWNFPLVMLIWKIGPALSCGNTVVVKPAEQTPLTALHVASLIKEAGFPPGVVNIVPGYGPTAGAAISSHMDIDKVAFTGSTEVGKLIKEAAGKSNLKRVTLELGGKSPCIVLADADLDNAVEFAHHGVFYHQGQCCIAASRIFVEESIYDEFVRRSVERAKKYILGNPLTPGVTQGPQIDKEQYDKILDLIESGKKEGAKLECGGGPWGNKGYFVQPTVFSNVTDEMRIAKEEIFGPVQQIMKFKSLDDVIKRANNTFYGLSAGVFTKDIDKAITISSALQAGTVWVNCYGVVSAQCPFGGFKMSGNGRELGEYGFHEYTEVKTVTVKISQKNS
SMILES,Potency,"activity, negative = inhibition"
CSc1ccc(-c2c(C#N)c(N)nc3c2c(C)nn3-c2ccccc2)cc1,"inconclusive [inhibitor, partial curve]",–
c1ccc2c(c1)CCN(c1ncnc3nc[nH]c13)C2,–,inactive: -2.8%
Cc1[nH]c2ccc(-c3nnc(SCC(=O)N4CCCc5ccccc54)o3)cc2c1C,–,inactive: -12.4%
c1ccc(CN2CCN(Cc3cn4cccnc4n3)CC2)cc1,"inconclusive [inhibitor, single point]",–
COc1ccc(-c2nc(NC(=O)c3n[nH]c(=O)c4ccccc34)sc2C)cc1,–,inactive: -0.0493%
CCOc1nc(OCC)nc(N2CCC(C)CC2)n1,active: 10 µM,–
CC(C)CN(C(=O)CN1CCN(c2ccc(O)cc2)CC1)c1c(N)n(CC(C)C)c(=O)[nH]c1=O,"inconclusive [inhibitor, single point]",–
CC1CN(c2oc(-c3ccco3)nc2S(=O)(=O)c2ccccc2)CC(C)O1 (configuration not stated),"inconclusive [inhibitor, partial curve]",–
Cc1ccc(-n2nc(C)c3c(-c4cccs4)c(C#N)c(N)nc32)cc1,"inconclusive [inhibitor, partial curve]",–
Cc1ccc(S(=O)(=O)c2c(N)n(CC3CCOC3)c3nc4ccccc4nc23)cc1 (configuration not stated),"inconclusive [inhibitor, partial curve]",–
O=C(Nc1nc(N2C(=O)c3ccccc3C2=O)n(-c2ccccc2)n1)c1ccc(Cl)cc1,–,inactive: 9.84%
Cc1ncsc1CCOC(=O)C1C2CC3CC(C2)CC1C3 (configuration not stated),"inconclusive [inhibitor, single point]",–
CCOCC(=O)Nc1ccc([N+](=O)[O-])cc1C,"inconclusive [inhibitor, single point]",–
CCCOc1ccc(NCC(=O)Nc2ccc(C)cc2C)cc1,active: 2.24 µM,–
Cc1ccc(OCC(=O)c2cc(C)n(C)c2C)c([N+](=O)[O-])n1,–,inactive: -6.89%
Cc1ccc(-c2csc3ncnc(Nc4ccc(N5CCOCC5)cc4)c23)cc1,"inconclusive [inhibitor, single point]",–
Cc1ccccc1Cn1c2ccccc2c2cnn(CC(=O)N3CCN(c4ccccc4)CC3)c(=O)c21,"inconclusive [inhibitor, single point]",–
CCC(C(=O)OCC(=O)Nc1c(Cl)cccc1Cl)c1ccccc1 (configuration not stated),–,inactive: 7.38%
O=C(OCc1nnc(-c2ccc(Cl)cc2)o1)c1ccc(=O)n(Cc2ccccc2)n1,"inconclusive [inhibitor, single point]",–
CCOC(=O)c1c(C)[nH]c(C)c1C(=O)CSc1nnc(-c2ccco2)n1Cc1ccccc1,active: 15.8 µM,–
O=C(CCCNC(=O)/C(=C/c1ccccc1F)NC(=O)c1ccccc1)OCc1ccccc1,–,inactive: -4.15%
Cc1cc(C)nc(N/C(=N\S(=O)(=O)Cc2ccccc2)Nc2cccc(Cl)c2C)n1,"inconclusive [inhibitor, single point]",–
Cc1ccc(C)c(N2C(=O)c3ccc(C(=O)OCC(=O)c4c(N)n(C)c(=O)n(C)c4=O)cc3C2=O)c1,active: 20 µM,–
Cc1ccc(/C=N/n2c(-c3cccnc3)n[nH]c2=S)s1,"inconclusive [inhibitor, partial curve]",–

SMILES,Potency,"activity, negative = inhibition"
COc1cc(C(=O)N2CCN(C(=O)c3ccco3)CC2)c([N+](=O)[O-])cc1OC,–,inactive: -12.5%
COC(=O)c1sc(S(=O)(=O)Nc2ccc(C)c(C)c2)c(C(=O)OC)c1C,"inconclusive [inhibitor, single point]",–
CCN=C1S/C(=C\c2ccc(Sc3ccc(Cl)cc3)o2)C(=O)N1CC,–,inactive: -10.9%
CCOc1cc(CNCCSc2nnnn2C)cc(Br)c1OCc1ccccc1F,"inconclusive [inhibitor, single point]",–
C=CCn1c(Cc2c[nH]c3ccccc23)nnc1SCC(=O)NCc1ccccc1,–,inactive: 26.5%
COc1ccc(C(=O)n2nnc3ccccc32)cc1Br,"inconclusive [inhibitor, partial curve, poor fit]",–
Cc1ccc(C(c2nnnn2CC2CCCO2)N2CCN(C(=O)c3ccco3)CC2)cc1 (configuration not stated),active: 15.8 µM,–
C=C1CC[C@H](O)C/C1=C/C=C1\CCC[C@]2(C)C([C@H](C)CC[C@@H](O)C(C)(C)O)CC[C@@H]12 (some centres not stated),–,inactive: 0.757%
COc1ccc(CNc2nc3c(c(C(F)(F)F)n2)CCCCC3)cc1,"inconclusive [inhibitor, partial curve]",–
COc1cc(OC)c2c(OC)cccc2n1,"inconclusive [inhibitor, single point]",–
O=C(Nc1cc(S(=O)(=O)N2CCCC2)ccc1OCC(F)(F)F)c1ccc(F)cc1,"inconclusive [inhibitor, partial curve]",–
CCC(O)C1CCN(Cc2cn(-c3ccc(OC)cc3)nc2-c2cccc(F)c2)CC1 (configuration not stated),"inconclusive [inhibitor, single point]",–
O=C(CSc1nc2ccccc2[nH]1)NCc1ccc(F)cc1,–,inactive: -1.39%
CCOC(=O)c1sc2nc(C)nc(SCC(=O)N(CC)C3CCS(=O)(=O)C3)c2c1C (configuration not stated),"inconclusive [inhibitor, partial curve]",–
CCN(CC(=O)Nc1cccc(C(C)=O)c1)S(=O)(=O)c1ccccc1,"inconclusive [inhibitor, single point]",–
CCN(CC)CCn1c(=N)n(CC(O)c2ccco2)c2ccccc21 (configuration not stated),–,inactive: 5.74%
CCOc1ccc(N2C(=O)CC(N3CCC(O)(c4ccc(Br)cc4)CC3)C2=O)cc1 (configuration not stated),"inconclusive [inhibitor, single point]",–
Cn1cccc1C(=O)N1CCC2(CCCN(c3cccc(-c4ccccc4)c3)C2)CC1,–,inactive: -14.2%
COC(=O)C1=C(C)[C@@H](O)[C@@H](C)[C@](C)(c2cc(OC)c(C)c(OC)c2COc2ccccc2)O1,–,inactive: 10.6%
COc1ccccc1/C=C/C=N/NC(=O)Cc1cccn1C,"inconclusive [inhibitor, single point]",–
Cc1noc(C)c1-c1cncnc1NCc1cccnc1,active: 25.1 µM,–
Cc1nnc(NC(=O)CSc2cn(CCNC(=O)c3ccccc3)c3ccccc23)s1,active: 1.58 µM,–
O=c1c2cc(N3CCOCC3)ccc2[nH]c(=S)n1Cc1ccccn1,"inconclusive [inhibitor, partial curve]",–
COc1ccc(Nc2nc(N)nc(CSC(=S)N3CCN(C)CC3)n2)cc1,"inconclusive [inhibitor, single point]",–

SMILES,Potency,"activity, negative = inhibition"
CCOc1ccc(NCC(=O)N/N=C/C=C/c2ccccc2)cc1,"inconclusive [inhibitor, single point]",–
N#C/C(=C\c1ccc(N2CCOCC2)o1)C(=O)NCCc1ccccc1,"inconclusive [inhibitor, single point]",–
O=C(c1cc2ncc(Br)cn2n1)N1CCN(C(=O)c2ccco2)CC1,active: 25.1 µM,–
O=C(CN1CCOCC1)Nc1ccc(-c2nc3ccccc3[nH]2)cc1,"inconclusive [inhibitor, single point]",–
C/C(Cn1nnc([N+](=O)[O-])n1)=N\NC(=O)c1ccc(Cl)c(Cl)c1,active: 28.2 µM,–
O=c1cc2c(nn1Cc1ccc(F)cc1)-c1ccccc1CC2,"inconclusive [inhibitor, single point]",–
CC(C)C(=O)Nc1nnc(Sc2ccc(N(C)C)cc2)s1,active: 25.1 µM,–
NNc1nc2ccc(Cl)cc2s1,active: 35.5 µM,–
COc1ccc(C2Nc3ccccc3C(=O)N2Cc2ccccc2)cc1CN1CCOCC1 (configuration not stated),"inconclusive [inhibitor, partial curve]",–
CCOC(=O)C1=C(C)N=C2SC(C)C(=O)N2C1c1ccc(C(=O)OC)cc1 (configuration not stated),"inconclusive [inhibitor, partial curve]",–
CN(C)CCNC(=O)/C(=C/c1ccc(-c2cccc([N+](=O)[O-])c2)o1)NC(=O)c1ccccc1,"inconclusive [inhibitor, partial curve]",–
CCNC(=O)C12CCC(C)(C(=O)C1Br)C2(C)C (configuration not stated),"inconclusive [inhibitor, single point]",–
CCC/C=N/NC(=O)c1cccc(Br)c1,active: 25.1 µM,–
COc1cc(CNc2ccc(N3CCCC3)cc2)cc(Cl)c1OC,"inconclusive [inhibitor, partial curve, poor fit]",–
S=C(N/N=C/c1ccc2ncccc2c1)Nc1ccccc1,"inconclusive [inhibitor, single point]",–
CC[C@H](C)C(=O)O[C@H]1C[C@H](O)C=C2C=C[C@H](C)[C@H](CC[C@@H](O)C[C@@H](O)CC(=O)O)[C@H]21,–,inactive: 7.23%
COc1ccc(NC(=S)NCCCc2ccccc2)cc1,"inconclusive [inhibitor, single point]",–
COc1cc(S(=O)(=O)Nc2cccc(C)c2)ccc1NC(=O)c1ccncc1,–,inactive: -5.76%
COc1ccc(CCn2c(C)nc3ccccc3c2=O)cc1OC,"inconclusive [inhibitor, single point]",–
CCOC(=O)CSc1nnc(N)s1,"inconclusive [inhibitor, full curve, poor fit]",–
Oc1ccc(CNc2ccccc2)c2cccnc12,active: 10 µM,–
O=C1O/C(=C/c2ccccc2)c2ccccc21,"inconclusive [inhibitor, partial curve]",–
CC1CCc2nc(NC(=O)CN3CCN(Cc4ccc5c(c4)OCO5)CC3)sc2C1 (configuration not stated),active: 14.1 µM,–
CCSc1nccc(-c2nn(-c3ccc(C)cc3)ccc2=O)n1,–,inactive: 7.75%
